About 2,200 (0.71%) of roughly 310,000 compounds showed an effect of 50% or more. Effects have a minus sign here. The list shows a part of the results.

The target in the assay is human ether-à-go-go-related gene (hERG) potassium channel (human, UniProt Q12809). The assay is described as follows: primary screen, population patch clamp on CHO cells stably expressing hERG.
Sequence of human ether-à-go-go-related gene (hERG) potassium channel (Q12809 whole entry, looked up): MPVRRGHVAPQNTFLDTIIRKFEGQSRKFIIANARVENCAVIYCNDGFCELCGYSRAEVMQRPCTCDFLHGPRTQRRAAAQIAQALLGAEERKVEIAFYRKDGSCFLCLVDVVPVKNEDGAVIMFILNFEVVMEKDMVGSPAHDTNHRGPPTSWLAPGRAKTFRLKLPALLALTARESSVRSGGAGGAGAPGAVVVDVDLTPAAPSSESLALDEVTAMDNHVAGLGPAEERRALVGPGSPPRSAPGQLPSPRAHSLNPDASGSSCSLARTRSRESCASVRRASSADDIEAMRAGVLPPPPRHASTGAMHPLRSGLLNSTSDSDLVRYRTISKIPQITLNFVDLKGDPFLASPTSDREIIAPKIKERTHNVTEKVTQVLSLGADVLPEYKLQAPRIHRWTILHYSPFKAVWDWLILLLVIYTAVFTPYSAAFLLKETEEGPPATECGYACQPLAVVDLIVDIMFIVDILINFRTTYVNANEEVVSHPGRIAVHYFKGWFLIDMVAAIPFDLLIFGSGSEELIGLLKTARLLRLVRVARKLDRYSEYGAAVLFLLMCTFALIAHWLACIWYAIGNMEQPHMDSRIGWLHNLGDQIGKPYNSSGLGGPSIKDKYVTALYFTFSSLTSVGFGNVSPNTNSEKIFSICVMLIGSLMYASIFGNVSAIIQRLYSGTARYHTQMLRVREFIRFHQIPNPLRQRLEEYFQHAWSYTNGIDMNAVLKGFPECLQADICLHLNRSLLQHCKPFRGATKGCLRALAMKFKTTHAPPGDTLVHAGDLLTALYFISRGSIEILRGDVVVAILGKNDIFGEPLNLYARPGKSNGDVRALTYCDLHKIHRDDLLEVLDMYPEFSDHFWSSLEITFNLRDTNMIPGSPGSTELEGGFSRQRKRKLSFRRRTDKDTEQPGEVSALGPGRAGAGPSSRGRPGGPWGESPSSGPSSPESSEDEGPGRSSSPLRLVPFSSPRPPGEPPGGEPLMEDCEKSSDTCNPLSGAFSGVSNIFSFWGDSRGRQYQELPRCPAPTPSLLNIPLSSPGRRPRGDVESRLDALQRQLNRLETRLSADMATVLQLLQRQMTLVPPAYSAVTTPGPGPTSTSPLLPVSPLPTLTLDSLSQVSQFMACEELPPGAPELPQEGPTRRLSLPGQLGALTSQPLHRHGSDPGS
As to `O=C(O)c1nsc(Cl)c1Cl`, the “hERG current change (%, negative = inhibition) at 1uM” value is 19.4%. On to `COc1ccc2c(c1)O[C@H]1c3ccc(O)cc3OC[C@@H]21`, for which the “hERG current change (%, negative = inhibition) at 1uM” value is recorded as 9.08%. Next, `CCOC(=O)c1c(NC(C)=O)sc2c(OCC(O)CNC(C)(C)C)c(Br)ccc12` (stereo not shown): 6.13%; `CCCOc1cccc(-c2cc(-c3n[nH]c(=S)n3CC)c3ccccc3n2)c1`: 3.32%. Consider `O=C(O)c1ccccc1NCc1ccncc1`, for which the “hERG current change (%, negative = inhibition) at 1uM” value is 9.19%. Next, `S=C(Nc1cccc2ccccc12)NC1CCCCC1`: 12%; `CCOC(=O)Cc1csc(NC(=O)c2ccc(OC)c(OC)c2)n1.Cl`: -6.29%; `NC(=O)c1nsc(C(=O)N(CCCN2CCOCC2)C(C(=O)NC2CCCCC2)c2ccc(Cl)cc2)c1N` (stereo not shown): 1.54%.

For the compound `O=c1[nH]c(SCc2n[nH]c(=S)n2-c2ccccc2)nc2sc3c(c12)CCC3`, the “hERG current change (%, negative = inhibition) at 1uM” value is reported as 15%. On to `CC(=O)c1cc(CN2C(=O)CCC2=O)cs1`, for which the “hERG current change (%, negative = inhibition) at 1uM” value is reported as 7.8%. In the case of `COc1ccc(CC(=O)Nc2ccc(C(C)=O)cc2)cc1`, the “hERG current change (%, negative = inhibition) at 1uM” value is 20%.

Take `CC(=O)NC1CC2CCCC(C1)N2Cc1ccc(C)cc1` (stereo not shown): the “hERG current change (%, negative = inhibition) at 1uM” value is -10.4%. In the case of `Cl.O=C1c2ccccc2C(=O)N1CC#CCN1CCN(C2CCCCC2)CC1` it was -11.7%; in that of `S=C(Nc1ccccn1)NC1CCCCC1`, 8.01%; in that of `Cc1ccccc1C(=O)Nc1ccnc(-c2ccncc2)n1`, 14.1%.

For `CC(C)N1CCc2c(sc(NC(=O)c3ccc(S(=O)(=O)N4CCOCC4)cc3)c2C#N)C1`, the “hERG current change (%, negative = inhibition) at 1uM” value is reported as 14.1%. Consider `CCNC(=S)NNC(=O)CSc1nc2ccccc2n1C`, for which the “hERG current change (%, negative = inhibition) at 1uM” value was 7.28%.

Consider `CC(C)(C)c1ccc(-n2ncc3c2CCCC3NC(=O)CCn2cncn2)cc1` (stereo not shown), for which the “hERG current change (%, negative = inhibition) at 1uM” value is -5.58%.

For `COc1ccc(/C(C)=N/NC(=O)c2cc(-c3cccnc3)nc3ccccc23)cc1`, the “hERG current change (%, negative = inhibition) at 1uM” value is 5.97%. In the case of `CCCCCCOc1ccc(N2C(=O)CC(SC(=NCC)NCC)C2=O)cc1` (stereo not shown), the “hERG current change (%, negative = inhibition) at 1uM” value is listed as 16.3%. Take `CCN(CC)C(=O)[C@]1(c2ccccc2)C[C@@H]1CN.Cl`: the “hERG current change (%, negative = inhibition) at 1uM” value turned out to be 1.54%. Next, `CC(C)NC(=O)C1CCN(Cc2cccc(Oc3ccccc3)c2)CC1.O=C(O)C(=O)O`: 8.88%; `CCc1nnc(NC(=O)[C@@H](NC(=O)c2ccc(C(C)(C)C)cc2)C(C)C)s1`: 12.3%; `COc1ccc(C2c3c4c(n(C)c3CCN2C)CCN(C)C4c2ccc(OC)cc2)cc1.Cl` (stereo not shown): -0.844%.

In the case of `O=C(c1ccncc1)N1CCN(S(=O)(=O)c2cccc(F)c2)CC1`, the “hERG current change (%, negative = inhibition) at 1uM” value was determined as 5.77%.

The record behind these values is article PMC4336329 (PLoS ONE, 2015).
